Each structure is given as a SMILES string. In all, about 310,000 compounds went through this assay and about 14,000 (4.5%) showed an effect of 50% or more. The effect is printed as a negative number. The list shows a part of the results.

Results on 87 compounds are retold here after publication PMC4336329 (PLoS ONE, 2015).
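Also: peak tail current of the secondary pulse compared with the same well before compound.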

Chain of human ether-à-go-go-related gene (hERG) potassium channel (Q12809 whole entry, looked up): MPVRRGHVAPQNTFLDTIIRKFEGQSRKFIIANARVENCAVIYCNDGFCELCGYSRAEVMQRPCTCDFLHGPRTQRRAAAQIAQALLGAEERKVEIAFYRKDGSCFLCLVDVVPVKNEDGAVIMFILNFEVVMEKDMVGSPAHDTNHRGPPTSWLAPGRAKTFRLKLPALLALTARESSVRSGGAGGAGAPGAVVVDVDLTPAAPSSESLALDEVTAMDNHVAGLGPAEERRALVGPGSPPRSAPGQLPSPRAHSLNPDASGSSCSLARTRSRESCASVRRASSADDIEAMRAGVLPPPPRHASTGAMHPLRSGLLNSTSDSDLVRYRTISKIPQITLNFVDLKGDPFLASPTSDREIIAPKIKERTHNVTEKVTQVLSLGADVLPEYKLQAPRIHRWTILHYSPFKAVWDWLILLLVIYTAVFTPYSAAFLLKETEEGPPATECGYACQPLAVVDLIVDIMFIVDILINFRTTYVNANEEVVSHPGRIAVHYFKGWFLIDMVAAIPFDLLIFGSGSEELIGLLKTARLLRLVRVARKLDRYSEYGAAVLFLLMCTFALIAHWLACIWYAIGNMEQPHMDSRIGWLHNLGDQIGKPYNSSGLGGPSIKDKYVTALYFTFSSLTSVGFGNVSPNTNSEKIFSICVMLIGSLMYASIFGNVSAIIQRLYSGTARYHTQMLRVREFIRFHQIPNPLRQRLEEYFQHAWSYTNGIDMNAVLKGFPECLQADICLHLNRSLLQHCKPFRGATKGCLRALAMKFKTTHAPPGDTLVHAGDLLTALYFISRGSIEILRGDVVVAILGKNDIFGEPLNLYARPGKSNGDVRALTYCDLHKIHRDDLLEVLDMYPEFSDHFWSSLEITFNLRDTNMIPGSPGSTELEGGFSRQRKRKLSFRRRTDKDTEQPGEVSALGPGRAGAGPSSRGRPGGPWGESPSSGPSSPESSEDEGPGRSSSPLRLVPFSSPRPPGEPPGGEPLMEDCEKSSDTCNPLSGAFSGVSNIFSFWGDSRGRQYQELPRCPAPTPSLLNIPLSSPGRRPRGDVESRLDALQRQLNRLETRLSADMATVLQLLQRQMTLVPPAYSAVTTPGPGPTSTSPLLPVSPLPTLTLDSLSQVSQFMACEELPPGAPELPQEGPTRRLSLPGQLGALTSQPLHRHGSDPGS

This assay concerns the target human ether-à-go-go-related gene (hERG) potassium channel (human, UniProt Q12809). Briefly: primary screen, population patch clamp on CHO cells stably expressing hERG.
`Nc1nc(Nc2ccccc2Br)nc(C(F)(F)F)n1`: the “hERG current change (%, negative = inhibition) at 10uM” value turned out to be 10.9%.
`CCO[C@H]1OC(C(=O)N2CCN(Cc3ccc4c(c3)OCO4)CC2)=C[C@@H](c2cn(C(C)=O)c3ccccc23)[C@@H]1CCCO`: the “hERG current change (%, negative = inhibition) at 10uM” value is -44.8%.
On to `CCc1cccc(C)c1NC(=S)N(Cc1cccnc1)Cc1ccco1`, for which the “hERG current change (%, negative = inhibition) at 10uM” value is listed as -15.5%.
With `C=CCc1c(C)nc(SCC(N)=O)[nH]c1=O`, the “hERG current change (%, negative = inhibition) at 10uM” value stood at 9.73%.
Turning to `CCOC(=O)c1cn(CC(=O)Nc2ccc3c(c2)OCCO3)nn1`, the “hERG current change (%, negative = inhibition) at 10uM” value is listed as -2.39%.
To `COc1ccc(OC)c(S(=O)(=O)N2CCN(C(=O)c3cc(C4CC4)nn3-c3ccccc3)CC2)c1` belongs -11.1%; to `Cc1c(OCC(=O)NCc2ccncc2)ccc2c3c(c(=O)oc12)CCCC3`, 0.274%.
Consider `C/C(Cc1ccccc1)=N\NC(=O)CNC(=O)c1ccccc1O`, for which the “hERG current change (%, negative = inhibition) at 10uM” value is reported as -7.74%.
With `COc1cc(C)c(Cl)cc1S(=O)(=O)NCCCN1CCOCC1`, the “hERG current change (%, negative = inhibition) at 10uM” value is -7.72%.
With `CC(=O)N(C(C)=O)c1cccc2c(N(C(C)=O)C(C)=O)cccc12`, the “hERG current change (%, negative = inhibition) at 10uM” value is 15.8%.
On to `Cc1n[nH]c(=O)n1-c1ccc(OCc2ccccc2)cc1`, for which the “hERG current change (%, negative = inhibition) at 10uM” value is 12.6%.
Regarding `CCOc1ccccc1NC(=O)NC1(C(=O)NCc2cccnc2)CCCCC1`, the “hERG current change (%, negative = inhibition) at 10uM” value is reported as 14.9%.
`Cc1cc(C)c2nc(NC(=O)c3ccc4c(c3)OCO4)sc2c1`: the “hERG current change (%, negative = inhibition) at 10uM” value was -1.07%.
Regarding `CCOC(=O)c1[nH]c(C)c(C(=O)OCC(=O)N2CC(=O)Nc3ccccc32)c1C`, the “hERG current change (%, negative = inhibition) at 10uM” value was determined as 22.2%.
In the case of `Cc1nc(-c2ccc(Cl)cc2)sc1C1(C)CC(c2cccc(Cl)c2)=NO1` (stereo not drawn), the “hERG current change (%, negative = inhibition) at 10uM” value worked out at 6.2%.
As for `CC(C)C[C@H](NC(=O)N1CC(=O)Nc2ccccc21)C(=O)N1CCC[C@H]1C(=O)O`, the “hERG current change (%, negative = inhibition) at 10uM” value is listed as 14.8%.
Consider `COc1ccccc1C(CNC(=O)CNC(=O)c1ccccc1Cl)N1CCCC1` (stereo not drawn), for which the “hERG current change (%, negative = inhibition) at 10uM” value amounted to 5.83%.
Then `O=S(=O)(NCc1ccc(F)cc1)c1ccc2c(c1)OCCO2`, with -9.09%; and `O=C(Cc1cccs1)NCCn1ccc2ccccc21`, with -6.95%.
As for `CCC(Oc1ccccc1)C(=O)Nc1ccc(-c2nnc(-c3ccco3)o2)cc1` (stereo not drawn), the “hERG current change (%, negative = inhibition) at 10uM” value is given as -38.7%.
Then `C/C(=N\NC(=O)C(N)=O)c1ccc(OC(F)F)cc1`, with 5.59%.
Turning to `CC(Oc1ccccc1F)C(=O)/C=C/N(C)C` (stereo not drawn), the “hERG current change (%, negative = inhibition) at 10uM” value is 24.6%.
To `COc1cc2c(cc1OC)C(c1ccccc1O)N(C1CC(=O)N(c3ccccc3)C1=O)CC2` (stereo not drawn) belongs -6.74%; to `CCOP(=O)(OCC)C(c1ccccc1)N(C)C=O` (stereo not drawn), -8.77%.
Take `O=S(=O)(NCC(c1ccccc1)N1CCNCC1)c1ccc(Cl)cc1` (stereo not drawn): the “hERG current change (%, negative = inhibition) at 10uM” value was -28.6%.
On to `CN(CCc1ccccn1)S(=O)(=O)c1ccc2c3c(cccc13)C(=O)N2`, for which the “hERG current change (%, negative = inhibition) at 10uM” value is on record as -16.5%.
On to `Cc1ccc(S(=O)(=O)NC(CC(C)C)C(=O)N2CCOCCOCCOCC2)cc1` (stereo not drawn), for which the “hERG current change (%, negative = inhibition) at 10uM” value is 24.8%.
On to `O=C(OCCc1cc2ccccc2c(=O)o1)c1ccc2c(c1)OCO2`, for which the “hERG current change (%, negative = inhibition) at 10uM” value is recorded as 1.97%.
In the case of `O=C(NCc1ccccc1)c1cccn(Cc2ccccc2)c1=O`, the “hERG current change (%, negative = inhibition) at 10uM” value is -29.3%.
For the compound `CCCN1CN=C(NS(=O)(=O)c2ccc(C)cc2)NC1`, the “hERG current change (%, negative = inhibition) at 10uM” value was 16.7%.
To `Cc1ccc(N2C(=O)Nc3ccccc3S2(=O)=O)cc1Cl` belongs 7.22%; to `CC(C)(C)Cc1nnc(NC(=O)CSc2ccccc2)s1`, 15.9%.
Regarding `CCCNC(=O)c1cc2ccccc2c(=O)o1`, the “hERG current change (%, negative = inhibition) at 10uM” value is recorded as 10.8%.
As to `COC(=O)[C@H](Cc1ccccc1)NS(=O)(=O)N[C@@H](Cc1ccccc1)C(=O)OC`, the “hERG current change (%, negative = inhibition) at 10uM” value is 0.0712%.
Regarding `COc1ccc2oc(=N)c(C(=O)Nc3ccc(C)cc3)cc2c1`, the “hERG current change (%, negative = inhibition) at 10uM” value came out at 24.1%.
Turning to `Cc1cccc(NC(=O)CN2CCN(CC(=O)NCc3ccc(Cl)cc3Cl)CC2)c1C`, the “hERG current change (%, negative = inhibition) at 10uM” value is -18.2%.
Turning to `Cc1ccc(C(=O)O/N=C(\c2ccccc2)c2ccncc2)cc1`, the “hERG current change (%, negative = inhibition) at 10uM” value is on record as -3.92%.
For `Oc1c(C(c2cccs2)N2CCC3(CC2)OCCO3)sc2ncnn12` (stereo not drawn), the “hERG current change (%, negative = inhibition) at 10uM” value worked out at 13.9%.
Turning to `Cc1c(C(=N)C(C#N)C#N)c(=N)oc2c1ccc1ccccc12`, the “hERG current change (%, negative = inhibition) at 10uM” value is given as 15.3%.
`COc1ncnc2c1oc1nc(C)c3c(c12)CC(C)(C)OC3`: the “hERG current change (%, negative = inhibition) at 10uM” value is reported as -1.6%.
As to `Cc1ccc(N(CC(O)Cn2c3ccccc3c3ccccc32)S(C)(=O)=O)c(C)c1` (stereo not drawn), the “hERG current change (%, negative = inhibition) at 10uM” value is given as -5.76%.
Then `CCCCCNC(=O)C(=O)C1C(=O)Nc2ccccc21` (stereo not drawn), with 22.2%; and `O=C(Cc1ccccc1[N+](=O)[O-])Nc1ccccc1C(=O)N1CCOCC1`, with 15.1%.
For the compound `CCN(c1ccccc1)S(=O)(=O)c1cc(OC)ccc1OC`, the “hERG current change (%, negative = inhibition) at 10uM” value amounted to 1.56%.
Consider `COc1ccccc1/C=C/C(=O)NC(=S)N1CCN(C)CC1`, for which the “hERG current change (%, negative = inhibition) at 10uM” value was determined as 6.42%.
Take `COc1ccccc1OCC(=O)NNC(=O)CSC(=S)N1CCCC1`: the “hERG current change (%, negative = inhibition) at 10uM” value came to 4.5%.
To `Cn1c(SCc2ccccc2)nnc1-c1ccco1` belongs 5.2%.
As for `CCN(Cc1ccncc1)Cc1nc(CC2CC2)no1`, the “hERG current change (%, negative = inhibition) at 10uM” value is recorded as 16.3%.
`O=C(CSc1ccc(-c2cccc([N+](=O)[O-])c2)nn1)N1CCCCCC1`: the “hERG current change (%, negative = inhibition) at 10uM” value is listed as -26.3%.
`COc1ccc(C)cc1NC(=O)c1ccc(NS(=O)(=O)c2cccc3cccnc23)cc1`: the “hERG current change (%, negative = inhibition) at 10uM” value worked out at 4.44%.
In the case of `Nc1cc(N)nc(SCC(=O)NCC2CCCO2)n1` (stereo not drawn), the “hERG current change (%, negative = inhibition) at 10uM” value is -4.72%.
Then `O=[N+]([O-])c1ccc(S(=O)(=O)c2cccc(C(F)(F)F)c2)nc1`, with 9.77%; and `CCOc1ccc(CCN2C(=O)C3C4C=CC(C4)C3C2=O)cc1OCC` (stereo not drawn), with 3.14%; and `O=C(C1=C[C@@H](c2ccc(Br)cc2)C[C@@H](OCCCCO)O1)N1CCN(Cc2ccc3c(c2)OCO3)CC1`, with -55.3%.
`COc1ccc(-c2csc(C3=C(O)CN(CCCN4CCCC4=O)C3=N)n2)cc1OC`: the “hERG current change (%, negative = inhibition) at 10uM” value was 5.44%.
As for `Cc1ccc(C(=O)c2sc3nsc(C)c3c2N)cc1`, the “hERG current change (%, negative = inhibition) at 10uM” value was 11%.
For `COc1ccc(OCC(O)COc2ccc(OC)cc2)cc1`, the “hERG current change (%, negative = inhibition) at 10uM” value is on record as -6.73%.
`O=C(Nc1ccnn1C1CCN(C(=O)c2cccc(Cl)c2)CC1)C1CCOC1` (stereo not drawn): the “hERG current change (%, negative = inhibition) at 10uM” value stood at 14.5%.
Take `Cc1ccc(S(=O)(=O)N2CCOCC2)cc1NC(=O)COC(=O)c1cc(=O)c2ccccc2o1`: the “hERG current change (%, negative = inhibition) at 10uM” value is on record as 3.42%.
As to `N#Cc1c(N)nc2c(c1-c1ccc3c(c1)OCO3)CCc1ccccc1-2`, the “hERG current change (%, negative = inhibition) at 10uM” value was 29%.
`COc1ccccc1C1=CC(=O)C[C@H](c2ccc(Cl)cc2)C1`: the “hERG current change (%, negative = inhibition) at 10uM” value is reported as 0.852%.
As for `Cc1cc(=O)oc2cc(NC(=S)NCc3cccnc3)ccc12`, the “hERG current change (%, negative = inhibition) at 10uM” value was found to be 18.9%.
`O=C(NC1CCCCC1)C(c1cccnc1)N(C(=O)CCl)c1cccc(Cl)c1` (stereo not drawn): the “hERG current change (%, negative = inhibition) at 10uM” value is recorded as -14.2%.
On to `COc1cc(/C=N/NC(=O)CCN2CCN(C(c3ccccc3)c3ccccc3)CC2)ccc1O`, for which the “hERG current change (%, negative = inhibition) at 10uM” value is recorded as -78.7%.
In the case of `O=C(CCc1ccccc1)NC(=S)Nc1cccc(Br)c1`, the “hERG current change (%, negative = inhibition) at 10uM” value was 14.3%.
For the compound `c1ccc(-n2nnc3cnccc32)cc1`, the “hERG current change (%, negative = inhibition) at 10uM” value came out at 12%.
For `O=C(O)C(=O)O.O=C(c1ccco1)N1CCN(Cc2cccc([N+](=O)[O-])c2)CC1`, the “hERG current change (%, negative = inhibition) at 10uM” value is given as -20.3%.
On to `COc1ccc(NC(=O)CN(C)C(=O)c2c(-c3ccccc3Cl)noc2C)cc1`, for which the “hERG current change (%, negative = inhibition) at 10uM” value stood at 3.2%.
Then `O=C(Nc1cccc(S(=O)(=O)N2CCCCC2)c1)c1cc([N+](=O)[O-])ccc1N1CCOCC1`, with -64.2%; and `Cc1ccc(C(=O)NC(=S)N2CCN(c3ccc([N+](=O)[O-])cc3)CC2)cc1`, with -15.6%; and `COc1ccc(-c2cc(C(=O)NCc3ccco3)c3ccccc3n2)cc1OC`, with -14.7%.
`COc1ccc(NC(=S)N(Cc2ccccn2)Cc2ccccc2Cl)cc1`: the “hERG current change (%, negative = inhibition) at 10uM” value is given as -11.5%.
For the compound `O=C1CCCC2=C1C(c1ccsc1)CC(=O)N2c1ccccc1` (stereo not drawn), the “hERG current change (%, negative = inhibition) at 10uM” value was -9.24%.
As to `COc1cc(S(=O)(=O)Nc2c(C)nn(C)c2C)ccc1NC(C)=O`, the “hERG current change (%, negative = inhibition) at 10uM” value is given as 0.368%.
Then `Cc1nc2ccc([N+](=O)[O-])cc2c(=O)n1Cc1cccc(Br)c1`, with -4.24%; and `CCOC(=O)C1(CC2CC2)CCN(C(=O)c2ocnc2C)CC1`, with 7.25%; and `CCS(=O)(=O)Nc1cc(OC)c(OC)cc1Cc1nccc2cc(OC)c(OC)cc12`, with -9.09%.
To `N#CCC(=O)Nc1ccc(C(=O)OC(C(=O)Nc2cc(C(F)(F)F)ccc2Cl)c2ccccc2)cc1` (stereo not drawn) belongs -7.88%; to `Cc1ccc(-n2nnnc2SCC(=O)NNC(=O)c2ccco2)cc1C`, 24.3%.
Regarding `Cc1nc2c(ccc3nc(NC(=O)Cc4cccc5ccccc45)sc32)s1`, the “hERG current change (%, negative = inhibition) at 10uM” value is recorded as 21%.
For `O=C(Nc1ccc2[nH]ncc2c1)c1ccccc1Cl`, the “hERG current change (%, negative = inhibition) at 10uM” value worked out at 22.1%.
Take `CCCC(=O)Nc1cc2c(cc1C(=O)c1ccccc1)OCCO2`: the “hERG current change (%, negative = inhibition) at 10uM” value was -12.2%.
Turning to `CC(=O)Nc1cccc2c1C(=O)N(c1ccccc1C)C2=O`, the “hERG current change (%, negative = inhibition) at 10uM” value is 16.2%.
Take `COc1ccc(C(=O)COc2ccc(F)cc2)c(O)c1`: the “hERG current change (%, negative = inhibition) at 10uM” value was -10.4%.
Then `Cc1ccc2nc(N3C(=O)C(O)=C(C(=O)c4ccc(C)o4)C3c3cccc(O)c3)sc2c1` (stereo not drawn), with 21.9%; and `O=C(CNCc1ccccn1)Nc1cc(C(F)(F)F)ccc1N1CCOCC1.O=C(O)C(=O)O`, with -57.5%; and `Cc1ccc(-c2nc3ccc(Cl)cc3n2OC(=O)N(C)C)cc1`, with 13.4%.
